Measured values from ChEMBL document CHEMBL4888484, “Replenishing the malaria drug discovery pipeline: Screening and hit evaluation of the MMV Hit Generation Library 1 (HGL1) against asexual blood stage Plasmodium falciparum ,using a nano luciferase reporter read-out” (2022).
About 540 (0.36%) of roughly 150,000 compounds showed an effect of 50% or more. Some of the results follow.

These compounds were tested on Plasmodium falciparum (assay: Primary screen in NF54 nanoGlo assay, in single point, at 2uM, 72h; a lower Z score goes with more inhibition). Settings: timepoint 72 hour.
Type: functional, Erythrocyte

| SMILES | % Inhibition | Z score |
| --- | --- | --- |
| COCCn1nnnc1[C@]1(N2CCCC2)CCN(C(=O)Cc2cccc(OC)c2)C1 | -3% | 0.45 |
| C=CC1CN2CCC1CC2c1[nH]c2ccccc2c1CCO (stereo unspecified) | -42% | 4.88 |
| Cc1cc2[nH]c(CN3CCN4C(=O)OC[C@H]4C3)cc(=O)n2n1 | 4% | -0.74 |
| CNC(=O)c1ccc(CN2C[C@H]3c4ccccc4OC[C@@]3(C(=O)O)C2)cc1 | -12% | 1.19 |
| Cc1[nH]c2ccccc2c1C(=O)[C@H](C)N1CCC(n2cncn2)CC1 | 6% | -0.87 |
| CC(C)C(Cc1ccc(F)cc1)NC(=O)CC1CC2CCC(C1)N2 (stereo unspecified) | -16% | 1.6 |
| CCn1cc(C(=O)N2C[C@@H](c3cccc(F)c3F)[C@@H]3[C@H]2C2CCN3CC2)cn1 | -2% | 0.33 |
| O=C(c1cncc(O)c1)N1C[C@H](c2ccccc2)C2(CCC2)C1 | 1% | -0.26 |
| Cc1csc2c(N3CCN4CCCC[C@H]4C3)ncnc12 | -16% | 2.48 |
| COc1ccccc1[C@H]1CN(C(=O)CCn2cncn2)[C@@H]2C3CCN(CC3)[C@H]12 | -3% | 0.64 |
| COc1ccc(NC(=O)CN2CC=C(c3cnn(C)c3)CC2)cc1Cl | -9% | 1.67 |
| O=C(Nc1ccc2n(c1=O)C[C@H]1C[C@@H]2CN(CC2CCCCC2)C1)C1CCCCC1 | 4% | -0.49 |
| C[C@@H](C(=O)N(C)C)N1CCC2(CCCCCC2)C1 | -15% | 2.66 |
| COCCn1c(C(=O)NCc2nnc3ccccn23)cc2cc(Cl)ccc21 | -17% | 1.54 |
| C=CCn1cc(CNCCc2c[nH]c3ccccc23)c(C)n1 | -10% | 1.34 |
| CC(C)CCOc1ccccc1CCN | -2% | 0.25 |
| Cn1cc(C(=O)Nc2ccc3c(c2)OCO3)c2cccnc21 | 3% | -0.31 |
| O=C(COc1ccccc1Cl)N1CCN(CC2CC2)[C@@H]2CS(=O)(=O)C[C@@H]21 | -3% | 0.41 |
| N#Cc1ccc(NC(=O)N2CC(=O)NC3CCCCC32)cc1Cl (stereo unspecified) | -12% | 1.37 |
| CCOC(=O)N1C[C@@H](c2cc(F)cc(F)c2)[C@@H]2[C@H]1C1CCN2CC1 | -1% | 0.21 |
| O=C(c1cccc2ccccc12)[C@H]1CCCN(CCc2cn[nH]c2)C1 | 19% | -2.18 |
| Cc1ccc(C(=O)N2CCC(c3n[nH]c(=O)o3)CC2)c2c1CCC2 | 9% | -1.71 |
| Cc1ncccc1CC(=O)N1CCN(CC(F)(F)F)C[C@H](C)C1 | 1% | -0.16 |
